Laboratory results from article PMC4336329 (PLoS ONE, 2015).
In all, about 310,000 compounds went through this assay and about 2,200 (0.71%) showed an effect of 50% or more. The effect is printed as a negative number. The list shows a part of the results.

Target: human ether-à-go-go-related gene (hERG) potassium channel (human, UniProt Q12809)
Test: primary screen, population patch clamp on CHO cells stably expressing hERG

human ether-à-go-go-related gene (hERG) potassium channel, sequence (Q12809 whole entry, looked up): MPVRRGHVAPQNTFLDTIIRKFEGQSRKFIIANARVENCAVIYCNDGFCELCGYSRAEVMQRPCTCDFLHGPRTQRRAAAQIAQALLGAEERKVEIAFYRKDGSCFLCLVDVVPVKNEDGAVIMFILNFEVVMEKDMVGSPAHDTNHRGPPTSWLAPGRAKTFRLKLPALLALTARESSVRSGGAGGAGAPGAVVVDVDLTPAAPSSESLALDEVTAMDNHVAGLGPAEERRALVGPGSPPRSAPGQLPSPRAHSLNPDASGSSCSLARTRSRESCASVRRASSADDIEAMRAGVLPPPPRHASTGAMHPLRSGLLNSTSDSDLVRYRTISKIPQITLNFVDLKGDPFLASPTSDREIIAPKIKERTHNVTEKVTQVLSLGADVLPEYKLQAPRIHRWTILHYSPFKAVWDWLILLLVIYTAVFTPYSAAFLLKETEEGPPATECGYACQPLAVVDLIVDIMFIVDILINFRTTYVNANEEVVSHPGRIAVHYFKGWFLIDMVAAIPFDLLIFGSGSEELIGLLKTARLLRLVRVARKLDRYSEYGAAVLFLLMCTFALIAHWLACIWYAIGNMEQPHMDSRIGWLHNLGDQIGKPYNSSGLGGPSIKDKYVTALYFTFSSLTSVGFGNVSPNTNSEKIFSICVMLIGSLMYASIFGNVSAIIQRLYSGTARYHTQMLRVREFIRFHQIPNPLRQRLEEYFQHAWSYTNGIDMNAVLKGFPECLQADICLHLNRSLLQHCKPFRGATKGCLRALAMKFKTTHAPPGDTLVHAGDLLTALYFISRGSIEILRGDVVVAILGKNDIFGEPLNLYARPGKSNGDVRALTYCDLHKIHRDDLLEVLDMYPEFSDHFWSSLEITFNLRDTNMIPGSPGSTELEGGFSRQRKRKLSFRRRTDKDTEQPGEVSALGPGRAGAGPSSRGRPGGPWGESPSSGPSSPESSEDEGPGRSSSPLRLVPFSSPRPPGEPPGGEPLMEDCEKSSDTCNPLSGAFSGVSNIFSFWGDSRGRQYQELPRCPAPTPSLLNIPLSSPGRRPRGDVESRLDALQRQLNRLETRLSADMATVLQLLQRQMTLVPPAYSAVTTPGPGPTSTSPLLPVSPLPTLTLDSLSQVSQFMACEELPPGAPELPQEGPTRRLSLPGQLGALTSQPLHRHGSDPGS

Point of comparison: CCN(CC(=O)Nc1c(C(=O)OC)[nH]c2ccccc12)c1ccc2c(c1)OCO2, “hERG current change (%, negative = inhibition) at 1uM” value 12.1%. Against it:
- O=C(Nc1ccc(Oc2ccccc2)nc1)C1CCCCN1Cc1ccco1 (centres unmarked) — lower, -5.22%
- CCN(CC)C(=O)Cn1nc(-c2ccncc2)nc1SCC(=O)Nc1ccc(OC)cc1 — higher, 13.2%
- CCN(CC)CCn1c2c(c(SCC(=O)Nc3ccccc3Cl)nc1=O)CCCC2 — lower, -24.9%
- Cc1ccc2c(CC(=O)N3CCN(S(=O)(=O)c4cccs4)CC3)coc2c1 — lower, 11.1%
- COC(=O)C(NC(=O)CCC(=O)N[C@@H](C(=O)OC)c1ccccc1)c1ccccc1 (some centres unmarked) — higher, 12.4%
- CCCCN(C(=O)c1cnc2n(c1=O)CCS2)c1ccccc1 — higher, 14.9%
- Cc1cc2ccccc2nc1SCC(=O)N1CCCC1 — lower, 1%
- COc1ccc(/C=N/N2CCN(c3ccccc3OC)CC2)cc1OC — lower, -0.622%
- Cc1cc(C)c(NC(=O)C2CC(=O)N(C(C)C)C2)c(C)c1 (centres unmarked) — the same, 12.1%
- CCN(C(=O)COC(=O)c1ccc(OC)c(S(=O)(=O)N(C)Cc2ccccc2)c1)C1CCS(=O)(=O)C1 (centres unmarked) — higher, 13%
- CCOc1ccccc1NC(=O)CCNS(=O)(=O)c1ccc(NC(C)=O)cc1 — lower, -0.647%
- Cc1ccsc1/C=N/NC(=O)Cc1ccc([N+](=O)[O-])cc1 — higher, 15.6%
- Cc1nnc(SCC(=O)Nc2nccs2)n1C(C)C — lower, 8.55%
- COCCN=c1scc(-c2cc(OC)ccc2OC)n1/N=C/c1c[nH]c2ccccc12 — lower, 3.15%
- O=C(Nc1ccc(F)cc1)N1CCOCC1 — higher, 19.8%
- CC(Cl)C(=O)NNC(=O)CNS(=O)(=O)c1ccccc1 (centres unmarked) — lower, -0.449%
- O=C1[C@H]2[C@H](C=CC[C@H]2C(=O)N2CCN(c3ccccc3)CC2)CCN1Cc1ccccc1 — lower, 9.8%
- CCN1C(=O)/C(=C2/Sc3ccc(OC)cc3N2C)SC1=Nc1ccc(OC)cc1 — higher, 17%
- CN(C)S(=O)(=O)c1ccc(Cl)c(NC(=O)COC(=O)/C=C/c2ccc3ccccc3n2)c1 — lower, 4.83%
- CCOP(=O)(OCC)c1nc(-c2cccc3ccccc23)oc1NCCc1ccc(OC)cc1 — lower, 8.58%
- COC(=O)CN1C(=O)[C@@H]2[C@H](C1=O)[C@@H]1CC(C(=O)OC)=C[C@@H](C(=O)OC)[C@@H]3C1=C(C(=O)[C@]3(C)NC(=O)c1ccccc1)[C@@H]2C — higher, 14.9%
- CC(=O)c1cccc(CN2CCN(Cc3ccc(F)cc3)C(CCO)C2)c1 (centres unmarked) — lower, 3.3%
- CCCNC(=O)c1onc(CSc2nc3ccccc3[nH]2)c1C(=O)NCCC — lower, -1.04%
- Cc1cccc(N2C(=O)CC(N3CCN(c4cccc(C(F)(F)F)c4)CC3)C2=O)c1 (centres unmarked) — lower, 10.5%
- O=C(Nc1ccc(C(=O)N2CCCCC2)cc1)C1=CSCCO1 — higher, 16%
- CCN(CC)S(=O)(=O)c1ccc(Cl)c(C(=O)NCc2ccco2)c1 — lower, 7.88%
- O=C(C1=C[C@@H](C2CCCCC2)C[C@@H](OCc2ccc(CO)cc2)O1)N1CCOCC1 — lower, 12%
- COCCn1c(N2CCN(c3ccc(OC)cc3)CC2)nc2c1c(=O)[nH]c(=O)n2C — lower, -0.883%
- CSc1nsc(SC)c1C(=O)NC(=O)Nc1cccnc1 — higher, 12.4%
- C/C(=N\Nc1ccc([N+](=O)[O-])cc1)c1ccc(O)cc1 — lower, 8.33%
- COc1cc(NC(=S)NCCO)c(OC)cc1Cl — lower, 7.87%
- CCCn1c(N)c(C(=O)CSc2nc3ccccc3c(=O)n2Cc2ccccc2)c(=O)[nH]c1=O — lower, 6.89%
- O=C(CN1CCCCC1)N/N=C/c1cc2ccccc2nc1Cl — lower, 5.11%
- O=C1CC(Sc2nnc(-c3ccccc3O)o2)C(=O)N1c1ccccc1 (centres unmarked) — lower, 7.68%
- COc1ccc(S(=O)(=O)NC2CC(=O)N(c3cccc(F)c3)C2)cc1OC (centres unmarked) — higher, 17.5%
- CC(C)Cc1cc(C(=O)Nc2sc3c(c2C#N)CCCC3)no1 — lower, -5.51%
- Cc1nnc(SCCn2c(N3CCCCC3)nc3c2c(=O)n(C)c(=O)n3C)s1 — higher, 14%
- COc1ccc([C@H]2CC(=O)C=C(c3ccc(F)cc3OCc3ccccc3)C2)cc1 — lower, 11.4%
- COc1cccc([C@@H]2CC=C(C(=O)O)[C@H](c3ccccc3)N2S(=O)(=O)c2ccc(C)cc2)c1 — lower, 4.94%
- Nc1cccc(Oc2cnccn2)c1 — higher, 18%
- COc1cc(OC)c(NC(=O)C2CCCN2C(=O)OCc2ccccc2)cc1Cl (centres unmarked) — lower, 11.5%
- C=CCn1c(SCCC#N)nnc1-c1ccncc1 — lower, 2.7%
- CCCCn1c(=O)c2ccccc2n2c(=S)[nH]nc12 — lower, 12%
- CCC(C)C(=O)Nc1cc(OC)c(OC)cc1C(=O)O (centres unmarked) — lower, 1.26%
- CCCNC(=O)N1CCN(Cc2ccco2)CC1 — higher, 15%
- COc1ccc(C2C(C(C)=O)=C(O)C(=O)N2c2ccc(O)cc2)cc1 (centres unmarked) — higher, 16%
- Cc1cccc(NC(=O)C2C3C=CC(O3)C2C(=O)O)c1C (centres unmarked) — higher, 12.8%
- O=C(Nc1cccnc1)c1cc(-c2ccc(F)cc2)on1 — lower, 11.4%
- CN(C)CCOc1ncnc2c1oc1ccccc12 — lower, -3.75%
- CC(=O)Nc1cccc(OCC(=O)NC(C)c2ccc3ccccc3c2)c1 (centres unmarked) — higher, 15.5%
- CCCCN(C(=O)c1ccc(S(=O)(=O)N(C)C)cc1)c1nc2ccccc2s1 — lower, 9.87%
- Cc1ccc(Sc2c([N+](=O)[O-])c(=O)n(C)c3ccccc23)cc1 — higher, 13.9%
- Cn1cccc1Cc1nnc(SCC(=O)Nc2cccc(F)c2)n1CCc1ccccc1 — lower, 5.02%
- CC(=O)Nc1ccc(S(=O)(=O)NCc2ccc(C)n2C)cc1 — higher, 12.2%
- CC1(C)CC(=O)C2=C(C1)Nc1ccccc1NC2c1ccc([N+](=O)[O-])cc1 (centres unmarked) — lower, 0.33%
- Cc1cc(C)n2c(Br)c(CN3CC4CC(C3)c3cccc(=O)n3C4)nc2n1 (centres unmarked) — lower, 9.14%
- COc1ccc(OCCCN2CCc3ccccc3C2)cc1.Cl — lower, -0.308%
- O=S1(=O)C=CC(N2CCOCC2)C1 (centres unmarked) — lower, -8.11%
- Cc1cc(C)c(NC(=O)CSc2nc3ncc(Br)cc3[nH]2)c(Cl)c1 — higher, 14.6%
- Br.O=C(CN1C2=NCCCN2c2ccccc21)c1cccc(Br)c1 — lower, -28.6%
- CCN1CCCC1CNC(=O)C(=O)NCCc1ccc(OC)c(OC)c1 (centres unmarked) — higher, 17.4%
- Cc1c(Cl)cccc1NC(=O)CSc1ncnc2c1cnn2CCc1ccccc1 — higher, 13.2%
- O=S(=O)(Nc1ccccn1)c1ccc(Br)cc1 — lower, 4.98%
- Cc1ccc(S(=O)(=O)N2CCC(C(=O)NCc3ccncc3)CC2)cc1 — lower, 2.01%
- CN1CCN(c2ccc(S(=O)(=O)N3CCCCC3)cc2NC(=O)COc2ccc(F)cc2)CC1 — lower, -18.2%
- O=C(O)Cc1sc(Nc2ccc(F)cc2)nc1-c1cccs1 — lower, 8.55%
- Cc1nn(C)c(C)c1N=Cc1c(O)ccc2ccccc12 — higher, 15.2%
- CC1CCCCN1CC(=O)Nc1sccc1C#N (centres unmarked) — lower, -7.59%
- COc1ccccc1CNS(=O)(=O)c1ccc(Cl)s1 — higher, 12.4%
- CCOC(=O)N1CCN(c2cccc(C)c2C)CC1 — higher, 12.3%
- Cc1cc(-c2csc(NC(=O)c3ccc(=O)[nH]c3)n2)c(C)n1Cc1ccccc1 — higher, 12.6%
- CNC(=O)/C(C#N)=C/c1ccc(-c2ccc(Cl)cc2)o1 — higher, 20.7%
- Cc1ccccc1C(=O)N1CCN(c2ccc(NC(=O)c3ccc4c(c3)OCO4)cc2)CC1 — lower, -4.49%
- CCCCC(=O)Oc1cc(C)[nH]c(=O)c1[N+](=O)[O-] — lower, 11.4%
- COc1cccc(NC(=O)CN(C)C(=O)c2oc3c(ccc4ccccc43)c2C)c1 — lower, -3.42%
- COCCNC(=O)/C(C#N)=C/c1ccc(C(=O)O)cc1 — higher, 18.9%
- Oc1c(Br)cc(Br)c(/C=N/n2c(-c3ccccc3)n[nH]c2=S)c1Br — higher, 13.6%
- CCOC(=O)CSc1nc(C)[nH]c1[N+](=O)[O-] — lower, 8.39%
- CCCNC(=O)C(=O)NCC1CCCN1CC (centres unmarked) — lower, 10%
- Cc1ccc(C(=O)N/C(=C\c2cn(C)c3ccccc23)C(=O)NCCCn2ccnc2)cc1 — higher, 13.5%
- O=C(Cc1n[nH]c(=O)c2ccccc12)OCc1c(Cl)cccc1Cl — higher, 14.5%
- CNC(=O)c1c(Br)cnn1-c1ccc(C)cc1 — higher, 14.1%
- Cc1ccc(Cn2c(C)cc3c(c2=O)C(c2cccs2)C(C#N)=C(N)O3)cc1 (centres unmarked) — lower, 11.8%
- CCN1CCN(S(=O)(=O)c2ccc3c(c2)NC(=O)CS3)CC1 — higher, 25.4%
- COCCn1c(C)c(C)c(S(=O)(=O)c2ccccc2)c1N — higher, 13.2%
- N=C1SCC(=O)N1/N=C/c1ccccc1 — higher, 13%
- CCOC(=O)N1CCN(C(=O)CSc2nnc(-c3c[nH]c4ccccc34)n2CCOC)CC1 — higher, 14.3%
- CCOC(=O)c1ccccc1NC(=O)Cn1cnc2c(nnn2-c2ccc(C)cc2)c1=O — lower, 10.7%
